Data as given in PubChem BioAssay AID485344 (National Center for Advancing Translational Sciences (NCATS), 2010).
Out of some 340,000 compounds screened, about 6,900 (2%) were called active. Rule as the data show it: active = inhibition above about 30%; inactive = below that, where a call was filed. The entries are a selection whose mix differs from that of the whole data set. Where no call is shown, the source filed none.

biological target: D(2) dopamine receptor (Homo sapiens) (UniProt P14416); assay: HTS Assay for Allosteric Antagonists of the Human D2 Dopamine Receptor: Primary Screen for Antagonists; conditions: HEK293 TREx D2 cells, calcium flux, dopamine EC80; at 10 µM; stronger effect = higher value; also: 0% is about no effect
Sequence of UniProt P14416 (P14416 whole entry, looked up): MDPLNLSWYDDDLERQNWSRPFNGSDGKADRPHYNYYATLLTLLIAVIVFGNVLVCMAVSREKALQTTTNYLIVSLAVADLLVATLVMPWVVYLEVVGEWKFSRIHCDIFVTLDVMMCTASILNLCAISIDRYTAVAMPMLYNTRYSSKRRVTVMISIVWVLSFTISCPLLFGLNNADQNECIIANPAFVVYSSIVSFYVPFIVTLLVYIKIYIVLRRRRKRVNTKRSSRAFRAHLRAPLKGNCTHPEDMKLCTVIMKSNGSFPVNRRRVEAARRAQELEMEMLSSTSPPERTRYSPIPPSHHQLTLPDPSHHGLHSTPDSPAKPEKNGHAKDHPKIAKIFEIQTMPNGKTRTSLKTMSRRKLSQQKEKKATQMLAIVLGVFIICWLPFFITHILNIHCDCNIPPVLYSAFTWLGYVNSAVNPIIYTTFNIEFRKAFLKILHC
Method in brief: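 In this primary screen, negative modulation is detected by tracking calcium flux after an EC80 dopamine challenge in inducible HEK293 T-REx D2 cells preexposed to test compound for 180 s.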

Row | Compound | inhibition
1 | O=C(Cn1c(SCC(=O)Nc2ccc(F)cc2)nc2ccccc21)NCc1ccccc1Cl | -7.68%
2 | COc1ccc(OC)c(NC(=O)CSc2nc3ccccc3c(=O)n2CCC(=O)NC2CCCCC2)c1 | 7.09%
3 | Cc1cccc(NC(=O)CN(C)CC(=O)NC(c2ccccc2)c2ccccc2)c1C | active: 32.7%
4 | Cc1ccc(S(=O)(=O)NCc2ccc(C(=O)NCCc3cccc(C)c3)cc2)cc1 | 8.42%
5 | COc1ccc(S(=O)(=O)N(Cc2nc(-c3ccc(Cl)cc3)no2)C2CCCCC2)cc1 | 0.206%
6 | N#Cc1c(C(F)(F)F)cc(-c2cccs2)nc1SCC(=O)Nc1cccc(C(F)(F)F)c1 | -1.74%
7 | O=C(c1ccccc1Br)N1CCC(c2nc3ccccc3o2)CC1 | 4.11%
8 | Cc1ccc(Cn2c(=O)n(-c3cc(C)cc(C)c3)c(=O)c3oc4ccccc4c32)cc1 | -0.835%
9 | O=S(=O)(c1ccc(-n2cnnn2)cc1)N1CCN(c2cccc(C(F)(F)F)c2)CC1 | 13.6%
10 | Cc1oc(C)c2c(=O)cc(-c3ccc4c(c3)OCO4)cc(OC(=O)c3cccc(Cl)c3)c12 | 10.7%
11 | CCC(C(=O)Nc1ccc(C(=O)OC)cc1)n1nc(-c2ccc(C)c(C)c2)ccc1=O (stereo not given) | -18.2%
12 | COc1cc(OC)cc(C(=O)Nc2cc(-c3nc4cccnc4s3)ccc2C)c1 | -22.6%
13 | Cc1c(C(=O)OC2CCCCCC2)[nH]c2c1C(=O)CC(c1ccc(N(C)C)cc1)C2 (stereo not given) | 14%
14 | COc1ccc(NC(=O)C2CCN(S(=O)(=O)c3ccc4c(c3)CCCC(=O)N4)CC2)c(OC)c1 | -6.96%
15 | CCOc1ccc(Nc2sc(C(=O)c3cccc(OC)c3)c(N)c2S(=O)(=O)c2ccccc2)cc1 | -15.9%
16 | Cn1c(=O)c(=O)n(C)c2cc(S(=O)(=O)N3CCCC3C(=O)Nc3ccc(F)cc3)ccc21 (stereo not given) | -5.68%
17 | Cc1ccc(C)c(N2N=C(C(=O)Nc3ccc(N4CCOCC4)cc3)CCC2=O)c1 | active: 35.1%
18 | CCOc1ccc(CNC(=O)Cn2ccc3cc(S(=O)(=O)N4CCCCC4)ccc32)cc1 | -8.68%
19 | COc1ccc(S(=O)(=O)N(CC(=O)NCCSCc2ccccc2)c2ccc(C)cc2)cc1 | 1.99%
20 | Cc1ccc(NC(=O)CSc2ccc(-c3ccccn3)nn2)cc1F | -26.8%
21 | COc1ccc(-n2cc(C(=O)OCc3ccc(Cl)cc3)c3ccccc3c2=O)cc1 | -4.64%
22 | CN(C)c1ccc(C(CNS(=O)(=O)c2ccc(F)cc2)N2CCOCC2)cc1 (stereo not given) | -20.7%
23 | COc1ccc2c(c1)c1c(c(=O)n(-c3ccccc3)c(=O)n1CC(=O)NCc1ccc(C)cc1)n2C | -2.24%
24 | CSc1nn(Cc2cccc(Cl)c2)c(N(C(C)=O)C(C)=O)c1S(=O)(=O)c1ccccc1 | -1.34%
25 | O=C(CSc1nc2nccnc2c(=O)n1CCc1c[nH]c2ccccc12)Nc1ccc(F)cc1 | 1.54%
